Data as given in PubChem BioAssay AID485344 (National Center for Advancing Translational Sciences (NCATS), 2010).
The whole screen tested about 340,000 compounds, of which about 6,900 (2%) were called active. Rule as the data show it: active = inhibition above about 30%; inactive = below that, where a call was filed. The entries are a selection whose mix differs from that of the whole data set. Entries without a call were filed so in the source.

What follows are compounds tested against D(2) dopamine receptor (Homo sapiens) (UniProt P14416) (assay: HTS Assay for Allosteric Antagonists of the Human D2 Dopamine Receptor: Primary Screen for Antagonists). Conditions: HEK293 TREx D2 cells, calcium flux, dopamine EC80; at 10 µM; stronger effect = higher value.
Chain of UniProt P14416 (P14416 whole entry, looked up): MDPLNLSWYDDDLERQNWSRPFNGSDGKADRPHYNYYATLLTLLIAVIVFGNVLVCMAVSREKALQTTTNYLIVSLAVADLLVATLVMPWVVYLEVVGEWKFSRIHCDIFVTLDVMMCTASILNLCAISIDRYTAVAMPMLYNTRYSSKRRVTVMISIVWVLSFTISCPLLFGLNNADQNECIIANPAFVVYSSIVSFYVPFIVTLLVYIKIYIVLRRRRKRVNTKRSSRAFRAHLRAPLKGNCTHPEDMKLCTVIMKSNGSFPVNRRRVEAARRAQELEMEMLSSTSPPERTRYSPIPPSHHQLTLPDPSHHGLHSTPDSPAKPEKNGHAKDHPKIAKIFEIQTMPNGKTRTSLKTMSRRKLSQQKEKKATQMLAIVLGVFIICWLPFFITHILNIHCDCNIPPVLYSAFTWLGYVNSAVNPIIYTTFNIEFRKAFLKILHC
In short: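 Tetracycline-induced HEK293 TREx cells expressing D2 receptor forced-coupled to calcium signalling, loaded with no-wash calcium dye. Compounds added and calcium flux read 180 s, then dopamine added at EC80 and read a further 180 s.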
Also: 0% is about no effect.

Structure (SMILES) | inhibition
Cc1cc(C)c(NC(=O)c2cc3c(=O)n4ccccc4nc3n2C)c(C)c1 | 25.2%
Cc1ccc(S(=O)(=O)N(C)C)cc1NC(=S)N1CCCCC1CO (centres undefined) | active: 39%
CCOC(=O)Cn1c(=O)n(C2CCCCC2)c2nc(-c3ccc(Cl)cc3)nc(C(N)=O)c21 | 11.6%
COc1cccc(-n2cc(C(=O)NCc3cccc(Cl)c3)c3ccccc3c2=O)c1 | -20.7%
COc1ccc(S(=O)(=O)Nc2cc3c(cc2NCc2ccccc2)n(C)c(=O)n3C)cc1OC | 9.21%
CCOc1ccc(C(=O)Nc2ccc3nc(SCc4ccccc4)sc3c2)cc1 | 3.21%
Cc1nc2c(-c3ccc(F)cc3)c(C)nn2c(C)c1CCC(=O)NCc1ccc(Cl)cc1 | -7.38%
N#Cc1cc(S(=O)(=O)c2ccccc2)c(N)[nH]c1=O | active: 85.6%
Cc1ccc(NC(=O)CSc2nc3c([nH]c4ccccc43)c(=O)n2-c2ccccc2)c(C)c1 | -9.78%
Cc1cccc(NS(=O)(=O)c2ccc3c(c2)CCN3C(=O)CCC(=O)O)c1C | 26.9%
CCN(c1ccccc1)S(=O)(=O)c1ccc(NC(=O)c2cc(=O)c3cc(C)c(C)cc3o2)cc1 | 5.59%
COc1cccc(CNC(=O)CCCN2C(=O)CSc3c2c(C)nn3-c2ccccc2)c1 | 10.2%
O=c1c2ccccc2n(Cc2cccc(F)c2)c(=O)n1Cc1ccccc1Cl | -10.7%
CCn1cc(C(=O)N2CCN(c3cc(C)ccc3C)CC2)c(=O)c2cc(S(=O)(=O)N(C)C3CCCCC3)ccc21 | 3.77%
Cc1cccc(Nc2c3c(nc4nncn24)CCC3)c1 | 7.48%
COc1ccc(-c2ccc3c(N)c(C(=O)Nc4cc(F)ccc4C)sc3n2)cc1 | 8.74%
COCCN(C(=O)CCC(=O)Nc1cc(C)on1)C(C(=O)NC(C)(C)C)c1ccccc1Cl (centres undefined) | active: 45.3%
Cc1ccc(-c2cc(C(=O)NCCc3ccccc3)c3c(-c4ccc(C)cc4)[nH]nc3n2)cc1 | 13.4%
CC1CC1c1ccc(/C=C(\C#N)C(=O)Nc2ccc(Cl)cc2)o1 (centres undefined) | active: 75.7%
CCOc1ccc(N2C(=O)N(Cc3ccc(C)cc3C)c3ccccc3S2(=O)=O)cc1 | -0.698%

Structure (SMILES) | inhibition
CN1CCN(c2nc3c(S(=O)(=O)c4ccc(Br)cc4)nnn3c3ccsc23)CC1 | 10.7%
CCCCc1nc(N2CCN(C(=O)c3ccco3)CC2)c(C#N)c2c1CCCC2 | active: 30.9%
Oc1ccc(Cl)cc1C1=Nc2ccccc2N=C(c2cccc(Br)c2)C1 | -0.974%
CCc1sc(Nc2cccc(Cl)c2C)nc1-c1cc2cccc(OC)c2oc1=O | 10.6%
COc1ccc(OC)c(NC(=O)c2cc(CN3CCCC3)on2)c1 | -18.6%
COc1ccc(C(=O)NNC(=S)NC(=O)C(C)(C)C)cc1 | active: 61.9%
O=C(CC1C(=O)OCCN1Cc1ccccc1)Nc1cccc(C(F)(F)F)c1 (centres undefined) | 7.48%
CC(=O)N1c2ccc(S(=O)(=O)N3CCCCCC3)cc2CC1C(=O)NCc1ccc(Cl)cc1 (centres undefined) | 4.33%
COc1cccc(CNC(=O)C2CCN(S(=O)(=O)c3cn(C)cn3)CC2)c1 | 8.31%
CC1CCN(C(=O)COC(=O)c2cccc(S(=O)(=O)N(C)c3ccccc3)c2)CC1 | active: 43.3%
O=C(Cn1cc(SCc2ccc(C(F)(F)F)cc2)c2ccccc21)N1CCCC1 | 8.33%
COc1ccc(CNC(=O)/C(C)=C\C(=O)O)cc1 | active: 36.3%
CCCOc1ccc(-c2nonc2NC(=O)c2oc3ccc(C)cc3c2C)cc1OCCC | 0.893%
CCOC(=O)N1CCC(NC(=O)c2cnn(-c3cccc(Cl)c3C)c2C2CCN(C(=O)OC(C)(C)C)CC2)CC1 | -6.01%
O=c1c2ccc(Cl)cc2[nH]c(=S)n1CCCN1CCOCC1 | active: 33.5%
COc1ccc(NC(=O)CSc2oc(-c3ccco3)nc2S(=O)(=O)c2ccc(Br)cc2)c(OC)c1 | -18.2%
CCc1ccc2oc(-c3cc(NC(=O)C(C)C)cc(C)c3O)nc2c1 | -6.14%
CC(C)Cn1c(=O)c2sccc2n2c(CCCC(=O)NCc3ccccc3Cl)nnc12 | -1.42%
Cc1cccc(-c2nc3c4ccccc4nc(NCc4ccc(Cl)cc4)n3n2)c1 | 11%
CC(=O)c1ccc(NC(=O)CSc2cn(CC(=O)N3CCCCCC3)c3ccccc23)cc1 | -20.7%

Structure (SMILES) | inhibition
CCOC(=O)c1ccc(NC(=O)N2CCN(C3CCCCC3)CC2)cc1 | active: 34.4%
Cc1ccc(C)c(NC(=O)Cn2cc(C(=O)c3ccc(Cl)cc3)c(=O)c3ccc(C)nc32)c1 | 0.641%
COc1cccc(OC)c1Oc1ccc(C(F)(F)F)cn1 | active: 66.1%
CC1CCN(S(=O)(=O)c2ccc(C(=O)Nc3sc4c(c3C(N)=O)CC(C)(C)NC4(C)C)cc2)CC1 | 6.67%
Cc1cccc(C)c1-n1ncc(C(=O)N2CCN(c3ccccn3)CC2)c1C1CCN(C(=O)OC(C)(C)C)CC1 | -8%
COc1cc(NC(=O)CSc2nc(-c3ccc(C)cc3)nc3c2Cc2ccccc2O3)cc(OC)c1 | -18.4%
N#Cc1ccc(CSc2nc3c(c(=O)[nH]2)CCC3)cc1 | 10.1%
CCC(=O)Nc1ccc(-c2nnc3c4ccccc4c(C)nn23)cc1 | -5.85%
O=C(NCc1ccccc1)c1ccc2c(c1)CCN2S(=O)(=O)c1ccccc1 | -7.4%
CCOC(=O)c1[nH]c(C)c(CCC(=O)NCc2ccccc2Cl)c1C | 10.8%
CNC(=O)c1ccc(Nc2nnc(-c3ccc(C)c(S(=O)(=O)N(C)C)c3)c3ccccc23)cc1 | 0.654%
COCCn1c(=O)[nH]c2cc(C(=O)NCCCN3CCN(c4ccc(F)cc4)CC3)ccc2c1=O | active: 58%
CCCc1ccc(S(=O)(=O)N2CCC(Oc3ccc(-n4cnnn4)cc3)CC2)cc1 | 7.81%
Cc1cc(C)cc(OCCCn2c(CCNC(=O)C3CCCCC3)nc3ccccc32)c1 | -14.1%
CCCCC(CC)CNC(=O)C1CCC(CNS(=O)(=O)c2cccc3nsnc23)CC1 (centres undefined) | 2.43%
CCC(=O)N1c2ccc(S(=O)(=O)N3CCC(C)CC3)cc2CC1C (centres undefined) | 21.5%
COc1ccc(CCNC(=O)CCCn2c(=O)c3ccccc3n(Cc3c(C)cc(C)cc3C)c2=O)cc1OC | -9.64%
CCc1ccccc1NC(=O)CSc1nc(-c2ccccc2OC)nc2c1Cc1c(CO)cnc(C)c1O2 | 14.6%
COC(=O)C(CCSC)NC(=O)c1cc2c(n(-c3ccc(C)cc3)c1=O)CC(C)(C)CC2=O (centres undefined) | -9.05%
